Assay results: publication PMC11589570, “Critical assessment of LC3/GABARAP ligands used for degrader development and ligandability of LC3/GABARAP binding pockets” (Nature Communications, 2024)
Where “and” joins values, the source holds several entries; their conditions need not be identical. Equal entries are not always repeated. Each block holds one compound with its values, some of them ahead of it.

How the values were obtained:
[1] = molecular target: T1, LC3A (Homo sapiens, UniProt Q9H492); test: FP assay with Cy5-labelled p62 LIR tracer (protein titration and tracer displacement); format: binding; settings: two replicate columns per compound
[2] = molecular target: T2, LC3B (Homo sapiens, UniProt Q9GZQ8); test: as above; format: binding; settings: for normalized FP signal, p62 LIR tracer displacement: LC3B; for compound titration LC3B (displacement curve, FP signal): two replicate columns per compound
[3] = molecular target: LC3C (Homo sapiens, UniProt Q9BXW4); test: as above; format: binding; settings: two replicate columns per compound
Chain of LC3C (Q9BXW4 1-126): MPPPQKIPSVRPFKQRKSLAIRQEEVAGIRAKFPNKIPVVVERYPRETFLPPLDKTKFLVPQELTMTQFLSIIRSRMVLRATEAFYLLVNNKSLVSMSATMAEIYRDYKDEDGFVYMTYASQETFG

[4] = molecular target: GABARAP (Homo sapiens, UniProt O95166); test: as above; format: binding; settings: two replicate columns per compound
Chain of GABARAP (O95166 1-116): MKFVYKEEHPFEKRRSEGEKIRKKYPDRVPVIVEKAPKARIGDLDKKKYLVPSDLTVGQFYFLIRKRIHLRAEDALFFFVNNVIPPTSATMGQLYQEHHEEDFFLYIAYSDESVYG

[5] = molecular target: GABARAPL1 (Homo sapiens, UniProt Q9H0R8); test: as above; format: binding; settings: two replicate columns per compound
Chain of GABARAPL1 (Q9H0R8 whole entry, the tested form may be a part): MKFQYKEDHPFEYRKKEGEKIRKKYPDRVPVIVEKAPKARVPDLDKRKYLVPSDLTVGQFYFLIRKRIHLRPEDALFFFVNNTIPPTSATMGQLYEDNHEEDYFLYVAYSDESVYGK

[6] = molecular target: T3, NanoLuc-fusion full-length LC3A (Homo sapiens, UniProt Q9H492); test: NanoBRET cellular target engagement assay in HEK293T cells; format: cell-based
T3 construct: a fluorescent donor (in this case full length LC3A and LC3B); expressed in transfected cells; host or cells: HEK293T (ATCC; CRL-11268)
Procedure: (§1) NanoBRET cellular target engagement assay: Constructs contained the cDNA of full-length LC3A and LC3B cloned in frame with an N-terminal NanoLuc-fusion. Plasmids were transfected into HEK293T (ATCC; CRL-11268) cells using FuGENE HD (Promega, E2312) and proteins were allowed to express for 20 h. 10O5 and 8F20-based tracers were titrated to the protein as depicted in Supplementary Fig. 4d. For competition experiments, 1 µM of the tracers was pipetted into white 384-well plates (Greiner 781 207) using an Echo 550 acoustic dispenser (Labcyte) containing LC3A/LC3B expressing transfected cells at a density of 2.5 × 10^5 cells/mL in Opti-MEM without phenol red (Life Technologies). The system was allowed to equilibrate for 2 h at 37 °C and 5% CO2 prior to BRET measurements. To measure BRET, NanoBRET NanoGlo Substrate + Extracellular NanoLuc Inhibitor (Promega, N2540) was added as per the manufacturer’s protocol, and filtered luminescence was measured on a PHERAstar plate reader (BMG Labtech) equipped with a luminescence filter pair (450 nm BP filter (donor) and 610 nm LP filter (acceptor)). Competitive displacement data were then plotted using GraphPad Prism 9.3 software using a normalized 3-parameter curve fit. A detailed step-by-step protocol for this assay is described in Schwalm..

[7] = molecular target: T4, NanoLuc-fusion full-length LC3B (Homo sapiens, UniProt Q9GZQ8); test: as above; format: cell-based
T4 construct: a fluorescent donor (in this case full length LC3A and LC3B); expressed in transfected cells; host or cells: HEK293T (ATCC; CRL-11268)
Procedure: as §1

[8] = molecular target: T1, LC3A; test: FP assay with 10O5- and 8F20-based dye-linked tracers 16 and 17
[9] = molecular target: T2, LC3B; test: as above
[10] = log10 concentration [M] -3.82391
[11] = log10 concentration [M] -4.1549
[12] = log10 concentration [M] -4.60206
[13] = log10 concentration [M] -5.30103
[14] = log10 concentration [M] -5.69897
[15] = log10 concentration [M] -6.22185
[16] = log10 concentration [M] -6.69897
[17] = log10 concentration [M] -7.30103
[18] = log10 concentration [M] -7.79588
[19] = log10 concentration [M] -8.08092
[20] = 0.05% Tween20 supplemented buffer

compound titration LC3A (displacement curve, FP signal) [1, 10]: 82.6316 and 91.8421
compound titration LC3A (displacement curve, FP signal) [1, 11]: 85.5263 and 99.2105
compound titration LC3A (displacement curve, FP signal) [1, 12]: 89.2105 and 103.421
compound titration LC3A (displacement curve, FP signal) ([1]; log10 concentration [M] -5): 90.7895 and 105.263
compound titration LC3A (displacement curve, FP signal) [1, 13]: 96.8421 and 102.105
compound titration LC3A (displacement curve, FP signal) [1, 14]: 93.1579 and 97.3684
compound titration LC3A (displacement curve, FP signal) [1, 15]: 98.9474 and 103.158
compound titration LC3A (displacement curve, FP signal) [1, 16]: 99.4737 and 96.8421
compound titration LC3A (displacement curve, FP signal) [1, 17]: 101.053 and 98.9474
compound titration LC3A (displacement curve, FP signal) [1, 18]: 105 and 101.842
compound titration LC3A (displacement curve, FP signal) [1, 19]: 102.632 and 101.316
normalized FP signal, p62 LIR tracer displacement [2, 10]: 42.3684 and 49.2105
normalized FP signal, p62 LIR tracer displacement [2, 11]: 90 and 101.842
normalized FP signal, p62 LIR tracer displacement [2, 12]: 94.4737 and 100.263
normalized FP signal, p62 LIR tracer displacement ([2]; log10 concentration [M] -5): 95 and 98.1579
normalized FP signal, p62 LIR tracer displacement [2, 13]: 97.3684 and 102.895
normalized FP signal, p62 LIR tracer displacement [2, 14]: 92.1053 and 97.3684
normalized FP signal, p62 LIR tracer displacement [2, 15]: 97.1053 and 102.368
normalized FP signal, p62 LIR tracer displacement [2, 16]: 97.6316 and 101.842
normalized FP signal, p62 LIR tracer displacement [2, 17]: 97.1053 and 92.6316
normalized FP signal, p62 LIR tracer displacement [2, 18]: 98.4211 and 99.7368
normalized FP signal, p62 LIR tracer displacement [2, 19]: 96.0526 and 96.3158
compound titration LC3B (displacement curve, FP signal) [2, 10]: 42.3684 and 49.2105
compound titration LC3B (displacement curve, FP signal) [2, 11]: 90 and 101.842
compound titration LC3B (displacement curve, FP signal) [2, 12]: 94.4737 and 100.263
compound titration LC3B (displacement curve, FP signal) ([2]; log10 concentration [M] -5): 95 and 98.1579
compound titration LC3B (displacement curve, FP signal) [2, 13]: 97.3684 and 102.895
compound titration LC3B (displacement curve, FP signal) [2, 14]: 92.1053 and 97.3684
compound titration LC3B (displacement curve, FP signal) [2, 15]: 97.1053 and 102.368
compound titration LC3B (displacement curve, FP signal) [2, 16]: 97.6316 and 101.842
compound titration LC3B (displacement curve, FP signal) [2, 17]: 97.1053 and 92.6316
compound titration LC3B (displacement curve, FP signal) [2, 18]: 98.4211 and 99.7368
compound titration LC3B (displacement curve, FP signal) [2, 19]: 96.0526 and 96.3158
compound titration LC3C (displacement curve, FP signal) [3, 10]: 18.6 and 15.8
compound titration LC3C (displacement curve, FP signal) [3, 11]: 38.2 and 41.8
compound titration LC3C (displacement curve, FP signal) [3, 12]: 92 and 93
compound titration LC3C (displacement curve, FP signal) ([3]; log10 concentration [M] -5): 93.8 and 95.8
compound titration LC3C (displacement curve, FP signal) [3, 13]: 93 and 96.8
compound titration LC3C (displacement curve, FP signal) [3, 14]: 84.8 and 91.2
compound titration LC3C (displacement curve, FP signal) [3, 15]: 93.2 and 91.6
compound titration LC3C (displacement curve, FP signal) [3, 16]: 94.6 and 99
compound titration LC3C (displacement curve, FP signal) [3, 17]: 97.6 and 98
compound titration LC3C (displacement curve, FP signal) [3, 18]: 94.2 and 90.8
compound titration LC3C (displacement curve, FP signal) [3, 19]: 95.8
compound titration GABARAP (displacement curve, FP signal) [4, 10]: 11.7241 and 11.3793
compound titration GABARAP (displacement curve, FP signal) [4, 11]: 35.3448 and 39.8276
compound titration GABARAP (displacement curve, FP signal) [4, 12]: 93.9655 and 97.5862
compound titration GABARAP (displacement curve, FP signal) ([4]; log10 concentration [M] -5): 95.5172 and 97.2414
compound titration GABARAP (displacement curve, FP signal) [4, 13]: 95.6897 and 96.7241
compound titration GABARAP (displacement curve, FP signal) [4, 14]: 93.6207 and 92.4138
compound titration GABARAP (displacement curve, FP signal) [4, 15]: 98.7931 and 97.4138
compound titration GABARAP (displacement curve, FP signal) [4, 16]: 100.862 and 96.7241
compound titration GABARAP (displacement curve, FP signal) [4, 17]: 97.5862 and 96.2069
compound titration GABARAP (displacement curve, FP signal) [4, 18]: 96.0345 and 94.8276
compound titration GABARAP (displacement curve, FP signal) [4, 19]: 95.3448 and 96.8966
compound titration GABARAPL1 (displacement curve, FP signal) [5, 10]: 13.2857 and 12.1429
compound titration GABARAPL1 (displacement curve, FP signal) [5, 11]: 38 and 36
compound titration GABARAPL1 (displacement curve, FP signal) [5, 12]: 96.5714 and 97.2857
compound titration GABARAPL1 (displacement curve, FP signal) ([5]; log10 concentration [M] -5): 100.286 and 101.857
Structure (SMILES): CCc1ccc(S(=O)(=O)Nc2cc(SCC(=O)O)c(O)c3ccccc23)cc1 [compound 11]

NanoBRET signal / tracer displacement ([6]; LC3A, 1 µM tracer, compound 4 for tracer 16, compound 3 for tracer 17): no BRET signal
maximum BRET increase in tracer titration ([6]; NanoLuciferase-tagged LC3A): ~ 1.3 fold
NanoBRET signal / tracer displacement ([7]; LC3B, 1 µM tracer, compound 4 for tracer 16, compound 3 for tracer 17): no BRET signal
maximum BRET increase in tracer titration ([7]; NanoLuciferase-tagged LC3B): ~ 1.3 fold
tracer affinity (protein titration for tracer KD) ([8]; buffer lacking detergent): nanomolar
tracer affinity (protein titration for tracer KD) ([9]; buffer lacking detergent): nanomolar
Structure (SMILES): O=C(CCc1ccc2n1[B-](F)(F)[N+]1=C(c3ccc[nH]3)C=CC1=C2)NCCCOCCOCCOCCCNC(=O)COc1c(Br)cc(C=C2C(=O)Nc3ccc(I)cc32)cc1Br [compound 16, N-(1-(2,6-dibromo-4-((5-iodo-2-oxoindolin-3-ylidene)methyl)phenoxy)−2-oxo-7,10,13-trioxa-3-azahexadecan-16-yl)−3-(5,5-difluoro-7-(1H-pyrrol-2-yl)−5H-4l4,5l4-dipyrrolo[1,2-c:2’,1’-f][1,3,2]diazaborinin-3-yl)propenamide]
tracer binding in repeated protein titration [8, 20]: completely abolishing the putative binding
tracer binding in repeated protein titration [9, 20]: completely abolishing the putative binding
